Publication PMC12136788
Some of the results follow.

T1: UNK ZnF1-6 (called full-length) (human, UniProt Q9C0B0 30-357)
T1 sequence: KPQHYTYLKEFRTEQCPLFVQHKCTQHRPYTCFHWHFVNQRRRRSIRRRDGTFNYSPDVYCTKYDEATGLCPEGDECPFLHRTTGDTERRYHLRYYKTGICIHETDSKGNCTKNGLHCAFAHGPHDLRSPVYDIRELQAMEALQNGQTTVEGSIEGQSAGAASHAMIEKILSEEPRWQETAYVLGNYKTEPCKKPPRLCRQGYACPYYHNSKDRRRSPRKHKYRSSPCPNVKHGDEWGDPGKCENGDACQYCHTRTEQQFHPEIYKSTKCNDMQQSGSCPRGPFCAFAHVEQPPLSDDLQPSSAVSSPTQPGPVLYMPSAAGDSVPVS

B1: chr1:193013303:193013404:-|3pUTR|ENSG00000116750|unk|FALSE|unique (ssRNA)
RNA: GGGAGUUCUACAGUCCGACGAUCAAACCACUCUAGCUAUUUGAAGAGGAAUGCAGAUUUAUAUUGGGAGUUUUGAAACUACAUAGUUUCUUACAAAAUCAUUGGAAGGUUUGGAGGAGCGGUUUCAAGCUUAAGUCUCCAGAGCAACAGAGGAUUGAGCAUCA
B2: chr3:9371215:9371332:+|CDS|ENSG00000134077|unk|total|mutant (ssRNA)
RNA: GGGAGUUCUACAGUCCGACGAUCUGGACAAGAAGUCAAAAUCGAUCAGAGAAAUGUUAAAAAAGAGUUCACCCGCCAUGCUUCCGAUUCUCAUAUCUCCGAUUAUUAUGAAAAUCCAGCCAUCAAAGAGGAUGUAUCAACAUUCAACAGAGGAUUGAGCAUCA
B3: ENSG00000198589:be:win_3401|CDS|ENSG00000198589|bound_else_gene|NA|bound_elsewhere_windowed (ssRNA)
RNA: GGGAGUUCUACAGUCCGACGAUCUGUCUCCAGCUGCAUCUGAAGCCGGUGAAAAACUGGACAUGUUUGGUAAUGAUGACAAAUUAAUAUUUCAAGAAGGAAAACCUGUUACUGAAAAGCAAACUGAUACUGAAACUCAAGAUUCAACAGAGGAUUGAGCAUCA
B4: chr3:58172026:58172127:+|3pUTR|ENSG00000136068|msi1|total|mutant (ssRNA)
RNA: GGGAGUUCUACAGUCCGACGAUCGGCAGACCUUCCGGUUUUGCUGCUCCGUCCUGAGGAAGUGGCCACUCUUGUGGCAGGUGCCGUAUCUGGGGCGAGUGUUGGGGGUAAAAGCCCACCCUACAGAAAGUGGAACAGCCCGGACAACAGAGGAUUGAGCAUCA
B5: chr5:123575802:123575904:+|CDS|ENSG00000151292|unk|total|mutant (ssRNA)
RNA: GGGAGUUCUACAGUCCGACGAUCACCUGAGAACUUCUUAACCGGACGACCAGGAAACAAAACCCAGCAAGUUAUUCACAUUACCGAUUUUGGUUUGGCAAAGGAAUAUAUUGAUCCGGAGACAAAGAAACACAUACCAUACAGCAACAGAGGAUUGAGCAUCA
B6: chr8:116846039:116846140:-|3pUTR|ENSG00000164754|msi1|total|mutant (ssRNA)
RNA: GGGAGUUCUACAGUCCGACGAUCACAUUCAAUAUGAUGUGCCUGUAAACCAAGGAGUUUUCCCCGUUUGUAAAAAGACAUUGCCGAUAAUUGAAUGUUUGAUUUCCGAAAGGUCAUCCGUUUCUUGUUACACAUUUUGUCCGUCAACAGAGGAUUGAGCAUCA
B7: chr4:152882748:152882856:+|CDS|ENSG00000164144|unk|FALSE|unique (ssRNA)
RNA: GGGAGUUCUACAGUCCGACGAUCCAGAAACUGCUGGCUAAAAAUGGAGAGACUCUUCUUGGGGCCAUUAAUUUUUUCAUUGCUAGUGUGAACACUUUGGUGAAUAAAACCAUUGAAGAUACAUUAAUGACUGUGAAACAGUAUCAACAGAGGAUUGAGCAUCA
B8: chr12:106239179:106239280:-|CDS|ENSG00000136026|msi1|FALSE|unique (ssRNA)
RNA: GGGAGUUCUACAGUCCGACGAUCGGACCAAGCCCAGGCCGCCCGUCUGCCUCCUCAGGACUUCCUGGACAGACUUUCUUCUCUAGACAACCUGAAAGCCUCAGUCAGCCAAGUGGAGGCGGACUUGAAAAUGCUCAGGACUGCCAACAGAGGAUUGAGCAUCA
B9: ENSG00000160710:stop:overlap|stop_codon|ENSG00000160710|stop_codon|NA|stop_codon (ssRNA)
RNA: GGGAGUUCUACAGUCCGACGAUCGCUAUGGGAACUGGAUUAGCAAACCCCAGGAGGAAAAGAACUUUUAUCUCUGCCCAGUAUAGUAUGCUCCAGUGACAGAUGGAUUAGGGUGUGUCAUACUAGGGUGUGAGAGAGGUAGGUCAACAGAGGAUUGAGCAUCA
B10: chr3:15667380:15667481:-|3pUTR|ENSG00000206560|msi1|total|mutant (ssRNA)
RNA: GGGAGUUCUACAGUCCGACGAUCUAUACAUAAAAGAUGACAUCUGAAAUAUCUGAUGUGUAUUAUAAUACCAGCUUCUGCUCCCGAACUACUUUGGGUGAAAUGGUGGUAACCGCAAAUGACCUCCUUUAACAAGACACUCAUCAACAGAGGAUUGAGCAUCA
B11: ENSG00000107863:be:win_1601|CDS|ENSG00000107863|bound_else_gene|NA|bound_elsewhere_windowed (ssRNA)
RNA: GGGAGUUCUACAGUCCGACGAUCAGGAUGAUAGACGAGGUAUUUGUGAAAGACCUAGGCAGCAAGAAAUUCAUAAAUCUUUUCGAGGUUCCAAUUUUACUGUGGCUCCAAGCGUUGUUAAUUCUGAUAACAGGCGAAUGAGUGCAACAGAGGAUUGAGCAUCA
B12: ENSG00000198589:be:win_1951|CDS|ENSG00000198589|bound_else_gene|NA|bound_elsewhere_windowed (ssRNA)
RNA: GGGAGUUCUACAGUCCGACGAUCAUGCUUUCUCUACGAGCAUUCUUGUUGAUGUUCAUUAAGCAAUUAGUGAUGAAGGAUUCUGGAGUAAAGGAAGAUGAAUUACAGGCCAUUCUUAAUUACCUACUGACUAUGCAUGAGGAUCAACAGAGGAUUGAGCAUCA
B13: chr2:37227669:37227839:-|CDS|ENSG00000115816|unk|FALSE|unique (ssRNA)
RNA: GGGAGUUCUACAGUCCGACGAUCGUUUACUUUUGCUUUUUUCGGACUUGUGUCAAAAAAAAAGAUGUUGAAUCAAAAAUGCUUAGCGCCCUUUUAACAGGUGUGAAUAGGGCAUACCCUUAUUCCCAGACUGGUGAUGACAAACAACAGAGGAUUGAGCAUCA
B14: chr2:65312585:65312700:-|3pUTR|ENSG00000198369|unk|total|mutant (ssRNA)
RNA: GGGAGUUCUACAGUCCGACGAUCUGGACCAGGGCCCGAAUGGGGAUUUCAGGUUUCUAUGAGCCUCCCCAUUACCCCUAAAGCCGAACAUUUUUUAAAUUGUGUUGCCACCACUUCUAAAAAUUCCGCAAUAUCCGAACCGGACAACAGAGGAUUGAGCAUCA
B15: chr8:73241459:73241605:-|CDS|ENSG00000274443|control|control|control (ssRNA)
RNA: GGGAGUUCUACAGUCCGACGAUCUGGCUUCAGUGAUCCUCUCACUGGAGCACCAUCUCAAUACUUAGAGAGACUUUCCAAAAUAGCCAUAUUGGAAUAUGAUACCAUUCGUCAGGAAACAACCACAAAAUCAAAAAAAAGCAACAACAGAGGAUUGAGCAUCA
B16: chr11:27366961:27367062:-|3pUTR|ENSG00000205213|msi1|FALSE|unique (ssRNA)
RNA: GGGAGUUCUACAGUCCGACGAUCUGAAUACUUCCUAAUAUCGUUGGCUCUACUAAUAUUUUCCAAUUUGCUGGGAUGUCACCUAGCAAUAGCUUGGAUUAUAUAGAAAGUAAACUGUGGUCAAUACUUGCAUUUAAUUAGACGCAACAGAGGAUUGAGCAUCA
B17: chr11:73401874:73401975:-|3pUTR|ENSG00000054965|unk|total|mutant (ssRNA)
RNA: GGGAGUUCUACAGUCCGACGAUCUGCAGGGUUUGUCCUUUACUUAUCUGCCCCUUUCCCCGAAAACUCCUCGUUUCUGAAAUCCGGCAUUAUAUGGUUCCAGGACCCAGCCUUCAAAAUUCCUGGCAGGCCAGCUUCAACAUUCAACAGAGGAUUGAGCAUCA
B18: chr1:180885316:180885399:+|3pUTR|ENSG00000143324|msi1_unk|total|mutant (ssRNA)
RNA: GGGAGUUCUACAGUCCGACGAUCUUGGCAGCCAUUUCUCCCAGCAGUUUUAAAGGAUGAACAUUGGAUUUCAUGCCAUCCCACCGAAAACCUGUUUUAAAAUUUCCGGGAUCUUUACUUGGUCAUACAUGAAAAGUACACUGCCAACAGAGGAUUGAGCAUCA
B19: ENSG00000143476:stop:overlap|stop_codon|ENSG00000143476|stop_codon|NA|stop_codon (ssRNA)
RNA: GGGAGUUCUACAGUCCGACGAUCCAUACUUCCAUAGAAAGUCCCAGGAGGACUUCUGUGGUCCUGAACACUCAACAGAAUUAUAGAUUCUAAUCUGAGUGAGUUACUGAGCUUUGGUCCACUAAAACAAGCUGAGCUUUGGUCCAACAGAGGAUUGAGCAUCA
B20: ENSG00000070961:be:win_2101|CDS|ENSG00000070961|bound_else_gene|NA|bound_elsewhere_windowed (ssRNA)
RNA: GGGAGUUCUACAGUCCGACGAUCGGAAUUACUGUGCGGAUGGUCACUGGUGAUAAUAUUAAUACUGCUCGGGCCAUUGCUACCAAAUGUGGUAUUUUACAUCCUGGGGAAGAUUUUCUGUGCCUAGAAGGUAAAGAUUUUAACCAACAGAGGAUUGAGCAUCA
B21: chr1:110340924:110341033:+|CDS|ENSG00000162775|unk|total|mutant (ssRNA)
RNA: GGGAGUUCUACAGUCCGACGAUCUGCUGCCUGGACCCAUAUGCGGGGCUUCCCACUUGGUGGCCCAGAUCGACGCCUCCGAGCCGACUUUGCCGACACCGAACAUCGUUACCAGCAGCAGUAUCUGCAGCCUCUGCCCUUGACCAACAGAGGAUUGAGCAUCA
B22: chr11:75572625:75572772:+|3pUTR|ENSG00000149257|msi1|FALSE|unique (ssRNA)
RNA: GGGAGUUCUACAGUCCGACGAUCUCUGGCGUUGUGGGGAUGAACUUUUUGUUUUGUUUCUUCCUUUUUUAGUUCUUCAAAGAUAGGGAGGGAAGGGGGAACAUGAGCCUUUGUUGCUAUCAAUCCAAGAACUUAUUUGUACAUCAACAGAGGAUUGAGCAUCA

What follows are binders tested against T1, UNK ZnF1-6 (called full-length) (assay: nsRBNS (natural sequence RNA bind-n-seq); RBNS binding buffer (assumed for nsRBNS): 25 mM Tris pH 7.5, 150 mM KCl, 3 mM MgCl2, 0.01% Triton X-100, 500 ug/ml BSA, 20 U/ml SUPERase-In, 4 C; UNK is unkempt and MSI1 is Musashi-1; names of the RNAs are library labels; protein concentration not given here; high values mean tight binding).

Binder	binding signal
B1	0.511 enrichment R
B2	0.252 enrichment R
B3	0.246 enrichment R
B4	0.663 enrichment R
B5	0.568 enrichment R
B6	0.265 enrichment R
B7	0.365 enrichment R
B8	1 enrichment R
B9	1.34 enrichment R
B10	0.302 enrichment R
B11	0.613 enrichment R
B12	0.436 enrichment R
B13	0.294 enrichment R
B14	0.534 enrichment R
B15	0.477 enrichment R
B16	0.708 enrichment R
B17	0.747 enrichment R
B18	0.292 enrichment R
B19	0.561 enrichment R
B20	0.458 enrichment R
B21	0.673 enrichment R
B22	0.937 enrichment R
